Measurements as given in patent US7410635B2 (priority 2003, dated 2008).

Details: heating lorazepam to greater than 200 degrees Celsius

With O=C1Nc2ccc(Cl)cc2C(c2ccccc2Cl)=NC1O (stereo not shown) [Lorazepam, 7-chloro-5-(2-chlorophenyl)-3-hydroxy-1,3-dihydro-2H-1,4-benzodiazepin-2-one] the “thermal degradation on heating” value was “rearrangement and a loss of water to produce a carboxaldehyde”.
